B1: chr1:157179356:157179357:-_ENSMUSG00000026469_ENSMUST00000027741|perfect_dup|FALSE|FALSE (ssRNA)
RNA: GGGAGUUCUACAGUCCGACGAUCCAGGAUGAGACUGAGGUAGAACUCGCUGAAGGCCAGCUUAAGGUCUUUAAUGUUCCUAUGUUGGACACGCUCCUCGUGGGACAGGUGGAACACUGGCUUUCUGCGCUGUCGCAAUGUCGUCAACAGAGGAUUGAGCAUCA
B2: chr4:140556289:140556290:+_ENSMUSG00000036622_ENSMUST00000037055|mus_mus|mus_mus_mus_hu_False|8_48 (ssRNA)
RNA: GGGAGUUCUACAGUCCGACGAUCGAUGGAGCUCACCAGGCCCCCUUUUGCCGUGCAGAACCCUGUGCGGGUCACCACUGCCAGGACACGGGGUCCCACAUAGGCCCGGGCCUGCAAGAUGAGGGUCCCACAGAAGAGUGUGUGCAACAGAGGAUUGAGCAUCA
B3: chr2:153583694:153583695:+_ENSMUSG00000027479_ENSMUST00000028981|perfect_dup|motif|central (ssRNA)
RNA: GGGAGUUCUACAGUCCGACGAUCGAAAAACUUCUUGAACCACUGAACGAAUUCAAAAUUGUCCUGAAACUUUCCUUUUACGGAUUUGUCCACAGGAAUUAUUUUGUCAACACCCAUUCUCUUAAAACCUGCUUGUAGUAUUUUCAACAGAGGAUUGAGCAUCA
B4: chr11:85733470:85733471:-_ENSG00000073921_ENST00000532317|hu_mus|FALSE|FALSE (ssRNA)
RNA: GGGAGUUCUACAGUCCGACGAUCUUUUGUGAAAUCGAAUGCAACUUGUCUGUAUGAAACUGCUUUUUCAUUUAAGUAUCUACUAUACCGUCUAAUAAAUGUAGACAUAUCAUAUCCUUGCAAUCCACUUUUAUCCAAAAAAUUCAACAGAGGAUUGAGCAUCA
B5: chr4:132926270:132926271:+_ENSMUSG00000028854_ENSMUST00000030669|mus_hu|FALSE|FALSE (ssRNA)
RNA: GGGAGUUCUACAGUCCGACGAUCUGGGUUUGCAAUCUGGAACUCCAAAGUGGGGAAAGGGGGCAAGGACCCAGGAACGACCACGAAAGGAGACCAAAAGGUCUGGAACUCCGGGCCUGGGAAGGGGGAGGACGGAUGUGGGAACAACAGAGGAUUGAGCAUCA
B6: chr5:72798818:72798819:+_ENSG00000145741_ENST00000335895|hu_hu|FALSE|FALSE (ssRNA)
RNA: GGGAGUUCUACAGUCCGACGAUCGAUGCUGGGUAGCAUUUCUGUCAGCUGCUUUGUCUCAGCAUGGCCUGUAAUGGUGAAAGUGUUCGCUGCCAGAGAUGCCUGAACUUUAGGGUUGUUAAAGUGGAUCACUGUUCCUUGGUUCAACAGAGGAUUGAGCAUCA
B7: 243727048_243736245_1062_CDS_ENSG00000117020_ENST00000366539|human|control|control (ssRNA)
RNA: GGGAGUUCUACAGUCCGACGAUCACAGAAUGUCUUCAUGGUGGCUGCAUCUGUGAUCCCUUCUUUGCAAAGUCCAAAAUCUGUAAUUUUUAUGUGGCCAUCUUUGUCCAGCAUUAGAUUCUCCAACUUGAGAUCACGGUACACCAACAGAGGAUUGAGCAUCA
B8: chr3:145257603:145257604:+_ENSMUSG00000074182_ENSMUST00000098534|mus_hu|motif|central (ssRNA)
RNA: GGGAGUUCUACAGUCCGACGAUCAUCAAUGUAAGGUUUUAGGAUUUCAUUAAUAGUUUUAUCAUCUGGUACUCUUUUUUCGGUGUACUCAGCUUGACUUUGAGGAAACUGGAGCUUCACAUGCCAACAAAACUGUUGUUUUUUCAACAGAGGAUUGAGCAUCA
B9: chr2:48782750:48782751:-_ENSMUSG00000026761_ENSMUST00000141441|mus_mus|motif|central (ssRNA)
RNA: GGGAGUUCUACAGUCCGACGAUCUUUUUCUGAUGAGCAAAAAUAUCAAAUUCAUCCAGUAUGAAGAUCACUGGGCAACUGCGGGUCCGGUCACCUUUUUGCAAAGCUUCCAGAAGAAAUGAAAGGUUUUCAGCAAAGCUUCCACAACAGAGGAUUGAGCAUCA
B10: chr7:149068622:149068623:-_ENSMUSG00000025139_ENSMUST00000001950|mus_hu|mus_mus_mus_hu_False|38_88 (ssRNA)
RNA: GGGAGUUCUACAGUCCGACGAUCGUGAGGCCUCUGAGUGUGGCUUGUGCUCUGCAGUGGGUUAGAGUUGUUAAUAUCACGGAACAUACCAUCUAGAGAGGUUCUGCCCCGCCUGACACCUUCAUUCCCAAUGGAGAAGAAAUCCAACAGAGGAUUGAGCAUCA
B11: chr10:7368923:7368924:-_ENSMUSG00000019795_ENSMUST00000163085|mus_mus|FALSE|FALSE (ssRNA)
RNA: GGGAGUUCUACAGUCCGACGAUCCAUGUAAGGGUUAGAUUUUGCAUAGUGGGAACGGUCUGUAGCCAGCAUCACUUCAAAUACUUUAUCUGUCUUGAUGAUUCCAUUCUUGCGGAGGUUGUGGAUUAGCUCCGAGUGGCUGGCCAACAGAGGAUUGAGCAUCA
B12: chr4:108167797:108167798:+_ENSMUSG00000034610_ENSMUST00000043368|mus_hu|FALSE|FALSE (ssRNA)
RNA: GGGAGUUCUACAGUCCGACGAUCCUCCACAAUUUCCUGACGGACUCUGAGGUCAUCAUCUGUUAUUCCAUGUUCUUUUGCUAAUUCAAUGACUGCAACACUUAAAGCAGCCAAGUGGGCAGGGGAAGGAGGUGGCAGAGAACGCAACAGAGGAUUGAGCAUCA
B13: chr11:100581416:100581417:-_ENSMUSG00000019173_ENSMUST00000107364|mus_hu|FALSE|FALSE (ssRNA)
RNA: GGGAGUUCUACAGUCCGACGAUCCCCGCCAUUGCCCGUCCAGCUGUAGUGGUCCAGAGAGCGUGCGGGUGGGGACUGGUGCUAUGCAAAGAGGCACUUAGUGGGGAGGGGGACCUCCAAGGCGGCUCCGGGGCGGCGGCGUUACAACAGAGGAUUGAGCAUCA
B14: 102342291_102344465_4559_CDS_ENSMUSG00000043940_ENSMUST00000053177|mouse|control|control (ssRNA)
RNA: GGGAGUUCUACAGUCCGACGAUCGGAAAUGCCUAACUGCUUCGCAAUGGCUUUGCUGUCUAACUUGUUGUAGACUUUCCGGAUUCUUGCCACUGUUAGGGAGGACACGGACAGAGCGUAGAGUCCAAAGGACACCUUUUCCUCCAACAGAGGAUUGAGCAUCA
B15: chr1:36558744:36558745:+_ENSG00000116863_ENST00000373178|hu_hu|motif|central (ssRNA)
RNA: GGGAGUUCUACAGUCCGACGAUCAAUGGUGUCUGUGUCCCCACCAAGUGAGAUGGAAUAAAUGAGAGUCCUUUGGAGGCGGUUGAAGGCAGAAGGGAUCUCAGGGUCUGGCUCCAUGCAGCGUAGGAAGCAGUAGAUGGCGGUCAACAGAGGAUUGAGCAUCA
B16: chr3:176767854:176767855:-_ENSG00000177565_ENST00000430069|hu_hu|hu_hu_hu_mus_False|18_18 (ssRNA)
RNA: GGGAGUUCUACAGUCCGACGAUCGACAUCCUUGUUACUGGGCACGUCCUGCCCUCCUUCCCGUAUGCAGUGUCUAAGCACGAGCUGCGUAGGGCCACUCGUGCUGUUCUCACUGAGAUUCCAUAUUCUUGCCGUGGAGUCUCCCAACAGAGGAUUGAGCAUCA
B17: chr18:35731670:35731671:+_ENSMUSG00000037236_ENSMUST00000166793|perfect_dup|FALSE|FALSE (ssRNA)
RNA: GGGAGUUCUACAGUCCGACGAUCUGACCCUGUGAAUCCCUACCGAGAGAUGACUGCUGGAAUGACUUGGACAUUGUAGAACUAUCUCUUGUCUAUUUUAUAGAUCAAAAAAAAAAAAAAAAGUUUUAAAAGAUGGCCAAAAAGCAACAGAGGAUUGAGCAUCA
B18: chr2:217001844:217001845:+_ENSG00000079246_ENST00000392132|hu_hu|hu_hu_hu_mus_False|68_108 (ssRNA)
RNA: GGGAGUUCUACAGUCCGACGAUCACCGACUUGAGGAUUAGAUCUUUUGUCAUAAGCAUAUCGGACGAUGGCCACCAUGUUUAACUCAUCCAAAGCAUGAACGAGAGAGGAAAGGGCAACAGCUGCCGCCUCAUCAUCCUUUGCCAACAGAGGAUUGAGCAUCA
B19: chr5:17772112:17772113:-_ENSMUSG00000057614_ENSMUST00000074694|mus_hu|motif|central (ssRNA)
RNA: GGGAGUUCUACAGUCCGACGAUCGUAUAUCCUCAGAAAUCUGAAAUUUUAGUUUUUCAAACCAAAUCUAACGUGGAAUCGGAUGUAAAAUUAAAUUAUUUUAUUUUCUUAAAGUAGGAAAAAUCAAAAUGCAUACAAUGUUUACAACAGAGGAUUGAGCAUCA
B20: chr14:90871172:90871173:+_ENSG00000198668_ENST00000553542|hu_hu|motif|central (ssRNA)
RNA: GGGAGUUCUACAGUCCGACGAUCAAUACAUGCAGAUUUUGUGUGUGUGGACAGAAGGUACUUUUGACAUUCAGUUUUGCGGUAUAGAAACAGAAUGAAUAAAUGAACUUUUUUCUUUUUUCUUUUUUUUGCAAGAGGUAAGUACAACAGAGGAUUGAGCAUCA
B21: chr13:6597965:6597966:-_ENSMUSG00000021196_ENSMUST00000144053|mus_mus|FALSE|FALSE (ssRNA)
RNA: GGGAGUUCUACAGUCCGACGAUCUCAUUCUCUCAUAUUACCACUGGCUCAAAUCCUCCAAUGAUCAGAAGGGCAUUGAUACUAUGGGAAUGCAUCUGCUCUGCGAUCUUCUCCAAGUACUUUCCAGGUAGGGUGCGUUUUGUCCAACAGAGGAUUGAGCAUCA
B22: chr4:148551591:148551592:-_ENSMUSG00000063077_ENSMUST00000060537|mus_hu|mus_mus_mus_hu_False|1_78 (ssRNA)
RNA: GGGAGUUCUACAGUCCGACGAUCACCUGACAAAAUUAAAUAUCCCUGUAAAUUAGACAAGAAGCAGCAGGCAACAAAGUCUUUGCUUUGGAAUAUGUGCCAGGAAAAGUCAUCUUGUUUUUAGAUCUCAAGAGACACAACCAUCAACAGAGGAUUGAGCAUCA

The list shows a part of the results.

The experiment addresses T1, UNK ZnF1-3 (human, UniProt Q9C0B0 31-174).
T1 sequence: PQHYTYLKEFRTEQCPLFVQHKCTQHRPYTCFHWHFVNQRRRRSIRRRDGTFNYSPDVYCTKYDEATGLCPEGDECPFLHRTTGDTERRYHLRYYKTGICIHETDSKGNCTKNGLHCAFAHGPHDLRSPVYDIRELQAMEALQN
Nature of the experiment: nsRBNS (natural sequence RNA bind-n-seq); RBNS binding buffer (assumed for nsRBNS): 25 mM Tris pH 7.5, 150 mM KCl, 3 mM MgCl2, 0.01% Triton X-100, 500 ug/ml BSA, 20 U/ml SUPERase-In, 4 C; UNK is unkempt and MSI1 is Musashi-1; names of the RNAs are library labels; protein concentration not given here; high values mean tight binding.
As for B1, the binding signal was determined as 0.819 enrichment R.

The molecule B2 returned a binding signal of 0.977 enrichment R. On to B3, for which the binding signal is 0.711 enrichment R.

In the case of B4, the binding signal was 0.389 enrichment R. The molecule B5 displayed a binding signal of 1.62 enrichment R. The figure for B6 is 0.447 enrichment R; for B7 it is 0.817 enrichment R; for B8 it is 0.475 enrichment R.

With B9, the binding signal turned out to be 1.29 enrichment R.

Consider B10, for which the binding signal was found to be 0.752 enrichment R. The figure for B11 is 0.897 enrichment R; for B12 it is 1.31 enrichment R.

As to B13, the binding signal turned out to be 1.31 enrichment R. In the case of B14, the binding signal was 0.721 enrichment R. The figure for B15 is 1.56 enrichment R; for B16 it is 0.349 enrichment R.

As to B17, the binding signal worked out at 2.84 enrichment R.

Turning to B18, the binding signal is 2.01 enrichment R. B19 yielded a binding signal of 1.76 enrichment R. The figure for B20 is 1.08 enrichment R; for B21 it is 0.746 enrichment R. As for B22, the binding signal came out at 1.61 enrichment R.

Source of the values: PMC12136788.
